Experimental data published in PMC6588450 (Cell chemical biology, 2019).

Key:
CDK14 [1] = biological target: T1, CDK14 (Homo sapiens, UniProt O94921); test: Cellular target engagement of CDK14 by pulldown assay; format: cell-based
CDK14 [2] = biological target: T1, CDK14; test: CDK14 33P kinase assay; format: biochemical
HCT116 cells = test: HCT116 antiproliferation assay; format: cell-based, human; conditions: Homo sapiens, HCT-116, 72 h, read-out: IC50 HCT116 Proliferation
CDK14/CycY = CDK14/CycY (Homo sapiens, UniProt O94921); test: LanthaScreen Eu kinase binding assay CDK14/CycY
CDK14 [3] = biological target: T1, CDK14; test: NanoBRET live cell target engagement CDK14; format: cell-based; conditions: IC50 CDK14 NanoBRET, HCT116 cells, without compound washout; ± SEM
CDK16/CycY = CDK16/CycY (Homo sapiens, UniProt Q00536); test: LanthaScreen Eu kinase binding assay CDK16/CycY
CDK2/CycA = CDK2/CycA (Homo sapiens, UniProt P24941); test: Z'LYTE kinase assay CDK2/CycA; format: biochemical
CDK2 = CDK2 (Homo sapiens, UniProt P24941); test: NanoBRET live cell target engagement CDK2; format: cell-based

Sequence of UniProt Q00536 (Q00536 whole entry): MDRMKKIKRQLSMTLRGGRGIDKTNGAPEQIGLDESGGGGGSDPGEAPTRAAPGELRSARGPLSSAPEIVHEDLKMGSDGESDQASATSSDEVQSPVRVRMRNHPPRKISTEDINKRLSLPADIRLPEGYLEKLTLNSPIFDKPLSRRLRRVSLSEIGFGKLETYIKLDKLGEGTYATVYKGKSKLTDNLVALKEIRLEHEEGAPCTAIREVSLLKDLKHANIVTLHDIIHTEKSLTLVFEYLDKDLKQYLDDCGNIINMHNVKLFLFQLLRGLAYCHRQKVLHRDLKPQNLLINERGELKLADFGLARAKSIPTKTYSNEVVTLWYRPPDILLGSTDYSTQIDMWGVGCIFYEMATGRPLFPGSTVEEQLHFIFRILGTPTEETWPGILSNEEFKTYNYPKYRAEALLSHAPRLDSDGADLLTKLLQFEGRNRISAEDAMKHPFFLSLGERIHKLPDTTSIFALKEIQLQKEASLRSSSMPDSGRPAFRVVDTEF
Sequence of UniProt Q00536 (Q8ND76 whole entry partner): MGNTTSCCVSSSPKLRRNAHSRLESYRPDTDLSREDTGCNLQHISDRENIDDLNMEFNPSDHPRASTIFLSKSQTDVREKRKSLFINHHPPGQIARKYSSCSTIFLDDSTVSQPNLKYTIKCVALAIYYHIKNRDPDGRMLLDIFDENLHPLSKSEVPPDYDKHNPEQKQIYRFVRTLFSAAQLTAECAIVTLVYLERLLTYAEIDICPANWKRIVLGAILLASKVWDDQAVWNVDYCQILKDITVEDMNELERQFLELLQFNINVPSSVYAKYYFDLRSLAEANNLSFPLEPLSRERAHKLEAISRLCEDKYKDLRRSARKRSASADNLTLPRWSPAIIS

Structure (SMILES) | IC50 (CDK14 [1]) [nM] | IC50 (CDK14 [2]) [nM] | IC50 (HCT116 cells) [µM] | IC50 (CDK14/CycY) [nM] | IC50 (CDK14 [3]) [nM] | IC50 (CDK16/CycY) [nM] | IC50 (CDK2/CycA) [nM] | IC50 (CDK2) [nM]
CN(C)C/C=C/C(=O)Nc1cccc(S(=O)(=O)N2CCC(NC(=O)c3n[nH]cc3NC(=O)c3c(Cl)cc(Cl)cc3Cl)CC2)c1 [FMF-04-159-2, (E)-N-(1-((3-(4-(dimethylamino)but-2-enamido)phenyl)sulfonyl)piperidin-4-yl)-4-(2,4,6-trichlorobenzamido)-1H-pyrazole-3-carboxamide] | 500 | 352 ± 40 | 1.14 ± 0.19 |  |  |  |  | 
CN(C)CCCC(=O)Nc1cccc(S(=O)(=O)N2CCC(NC(=O)c3n[nH]cc3NC(=O)c3c(Cl)cc(Cl)cc3Cl)CC2)c1 [FMF-04-159-R, N-(1-((3-(4-(dimethylamino)butanamido)phenyl)sulfonyl)piperidin-4-yl)-4-(2,4,6-trichlorobenzamido)-1H-pyrazole-3-carboxamide] | > 1000 | 367 ± 135 | 5.87 ± 1.19 | 139 ± 10.4 | 563 ± 145 | 5.9 ± 2 | 4.9 ± 0.5 | 493 ± 81
